According to ChEMBL document CHEMBL1201862, “PubChem BioAssay data set” (2004):
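Cells were grown in 96-well plates and exposed to each compound for 48 hours at five concentrations; endpoints were interpolated linearly between bracketing concentrations, or set to the highest concentration if not reached. The concentration for 50% growth inhibition is given as GI50.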 Active and inactive are the calls of the source. No stated cut-off is given here; in the data, active = GI50 up to about 1.1 µM and inactive = higher.

System: NCI-H322M
Experiment: inhibition of tumour cell growth, NCI panel, 48 h

Structure (SMILES)	GI50
CCOc1cc(C2SCC(=O)N2c2ccc(Oc3ccc(Cl)cc3)c(Cl)c2)ccc1O (stereo not drawn)	inactive: 16 µM
CC1=C(O)C(=O)[C@@H]2O[C@@H]2C1=O	inactive: 24.3 µM
Nc1nc(SCC(=O)O)nc(O)c1N	inactive: > 100 µM
CN(C)c1ccc(/C=C/c2ccnc3ccccc23)cc1N	inactive: 17.1 µM
CC(C)(C)c1cc(CCC(=O)Nc2ccc(Cl)cc2)nc(S)n1	inactive: > 100 µM
O=C(c1ccccc1)C(C(=O)c1ccccc1)C1(O)C(=O)c2ccccc2C1=O	inactive: 45.3 µM
CC(=O)Nc1ccc(S(=O)(=O)/N=C2\C=CC(=O)c3ccccc32)cc1	inactive: 15.6 µM
CCn1c2ccc(C(=O)CCCN(C)C)cc2c2cc(C(=O)CCCN(C)C)ccc21	active: 0.843 µM
C=C=C(C(=O)OC)[S+]([O-])c1ccccc1[N+](=O)[O-] (stereo not drawn)	inactive: > 100 µM
COc1ccccc1/N=C1\SCCN1C(=S)Nc1ccc(S(=O)(=O)/N=C/N(C)C)cc1	inactive: > 100 µM
Cn1ncc2c(c1=O)Nc1ccccc1S2(=O)=O	inactive: > 100 µM
CC(C)(C)c1cc(C(C)(C)C)c(SSc2c(C(C)(C)C)cc(C(C)(C)C)c(O)c2O)c(O)c1O	inactive: 20.5 µM
COc1cc(C=O)cc(/C=N/c2ccccn2)c1O	inactive: 36.9 µM
O=C1C=C(Nc2ccccc2C(=O)c2ccccc2)c2ccccc2C1=O	inactive: 57.3 µM
NC(=O)c1csc(C2C=CC(CO)O2)n1 (stereo not drawn)	inactive: > 100 µM
Cc1cccc(/N=C2\NC(=O)C(CC(=O)Nc3ccc(C)cc3C)S2)c1 (stereo not drawn)	inactive: > 100 µM
S=c1[nH]c(Cl)cc2nc(Cl)cn12	inactive: > 100 µM
O=C(NCCCCCCNC(=O)OCCSCCn1cc(C(=O)NC(=O)OCc2ccccc2)c(=O)[nH]c1=O)OCCSCCn1cc(C(=O)NC(=O)OCc2ccccc2)c(=O)[nH]c1=O	inactive: > 100 µM
CC(=O)Oc1cc2c(c3ncccc13)OC(C)(C)C2	inactive: 13.3 µM
COC(=O)/C=C1\C(=O)N(C(C)=O)c2ccccc21	inactive: 16.8 µM
C[C@H](N)C(=O)N[C@@H]1[C@H]2C(=C(O)C[C@@H](O)[C@@H]2O)C(=O)O[C@@H]1C	inactive: > 100 µM
C/C=C1/CN2CCC34c5ccccc5N(C)C23C2CC1C4(C(=O)OC)C(OC(C)=O)O2 (stereo not drawn)	inactive: > 100 µM
COc1nc(C#CCC(C)O)nc(OC)n1 (stereo not drawn)	inactive: 17.6 µM
CC(C)c1cc(C(C)C)c(B(c2ccccc2)c2ccccc2)c(C(C)C)c1Br	inactive: > 100 µM

Structure (SMILES)	GI50
O=C1Nc2nccnc2C(=O)N2CCC[C@@H]12	inactive: > 100 µM
CC(=O)Nc1ccc(C2CC(c3ccc([N+](=O)[O-])cc3)=Nc3ccccc3[S+]2[O-])cc1 (stereo not drawn)	inactive: 29.1 µM
O=C1/C(=C/c2ccc(Cl)cc2)CCC/C1=C\c1ccc(O)c(CN2CCCCC2)c1	inactive: 18 µM
O=C1/C(=C/c2ccccc2O)N=C(c2ccccc2)N1c1nc2ccccc2s1	inactive: 34 µM
CSc1ncnc2c1ncn2CCC(=O)O	inactive: > 100 µM
COc1ccc(OC)c(NC(=O)C(=O)Nn2c(S)nc3ccccc3c2=O)c1	inactive: > 100 µM
Nc1c(/C=C/c2cc3cc(C4=NCCN4)ccc3o2)[nH]c2cc(C3=NCCN3)ccc12	inactive: 22.6 µM
Brc1ccc(-c2nc(-c3ccc(Br)cc3)n(-c3ccccc3)n2)cc1	inactive: > 100 µM
CCCCOC(=O)Nc1ccc(S(=O)(=O)Nc2ccccc2Cl)cc1	inactive: 25 µM
CN/N=C(\C)CC(=O)Nc1cccc(Cl)c1C	inactive: > 100 µM
N=c1c2c(=S)n(-c3ccccc3)c(=S)n(-c3ccccc3)c2nc(SCCCN2CCN(c3cccc(Cl)c3)CC2)n1-c1ccccc1	inactive: 31.8 µM
O=c1c2cccnc2cc(-c2ccccc2)n1CCO	inactive: > 100 µM
Oc1ccc2c(c1)CCc1c-2n(CCN2CCOCC2)c2ccc(O)cc12	inactive: 43.6 µM
O=CNCNCCO	inactive: > 100 µM
O=C1C(Cl)C(c2cccc(Cl)c2)N1c1ccc(-n2c(S)nc3ccccc3c2=O)cc1 (stereo not drawn)	inactive: 25.7 µM
COC(=O)Nc1nc2cc(Oc3ccc4nc(NC(=O)OC)[nH]c4c3)ccc2[nH]1	inactive: 1.14 µM
CCOC(=O)c1nc2ccc(C(F)(F)F)cc2nc1Nc1ccc(F)cc1	inactive: > 100 µM
O=C(CNS(=O)(=O)Cc1ccccc1)NNc1ccccc1	inactive: > 100 µM
O=C(/C=C/c1ccc2c(c1)OCO2)CC(=O)C(=O)c1c[nH]c2ccccc12	inactive: 34.6 µM
CSC1=NC(=O)CCN1C1OCC(OC(C)=O)C(OC(C)=O)C1OC(C)=O (stereo not drawn)	inactive: 20.9 µM
O=c1n(C2CCCCC2)c(=C(Cl)Cl)c(=C(Cl)Cl)n1C1CCCCC1	inactive: > 100 µM
N=C(N)SCc1cccc([N+](=O)[O-])c1	inactive: 55.7 µM
CCOC(=O)C1(C(=O)OCC)C[C@@H](C)[C@@H](O)C1	inactive: > 100 µM
CC(=O)NNC(=S)N/C=C1/C(=O)Oc2ccccc2C1=O	inactive: > 100 µM

Structure (SMILES)	GI50
CCOC(=O)C1S/C(=N\c2ccc(C)c(C)c2)N=C1C (stereo not drawn)	inactive: > 100 µM
CNC(=O)N(CCC#N)CCN(C(=O)N(C)C)c1ccccc1	inactive: > 100 µM
COc1ccc(-c2cc(C3CC3)nc(SCC(=O)O)c2C#N)cc1	inactive: > 100 µM
CCc1ccc(NC(=O)NC(=O)c2ccccc2[N+](=O)[O-])cc1Oc1ncc(Cl)cn1	active: < 0.0152 µM
O=C1c2cccc([N+](=O)[O-])c2C(=O)c2nccnc21	inactive: 2.2 µM
CCOc1cc(/C=C/C=C/c2ccc(N(C)C)cc2)[s+]c2ccccc12	inactive: > 100 µM
O=C(CC(C(=O)c1cccs1)c1ccsc1)c1ccco1 (stereo not drawn)	inactive: 12.4 µM
C[C@H]1C[C@H](C)c2ccccc2N(C)/C1=N\c1ccccc1	inactive: 25.5 µM
CCOC(=O)c1nc2ccc(C(F)(F)F)cc2[nH]c1=O	inactive: > 100 µM
Cc1nc2c(O)cc3c4c(n(Cc5ccccc5)c3c2nc1C)C(=O)CCC4	inactive: 37.5 µM
Cc1c(CCCl)c(N=[N+]=[N-])n2c(nc3ccccc32)c1C#N	inactive: 3.33 µM
Cn1ccnc1SC(F)(F)c1nc2ccccc2o1	inactive: > 100 µM
O=c1[nH]c(=O)n(C2OC(CO)C(O)C2O)cc1Oc1ccccc1 (stereo not drawn)	inactive: > 100 µM
CCOC(=O)C1=C(OC(OCC)C(C)[Se]c2ccccc2)CCC1 (stereo not drawn)	inactive: > 100 µM
Clc1ccc(CSC2=NCCN2)cc1Cl	inactive: 20.4 µM
CCOC(=O)C(SCCO)C(C(=O)OCC)n1cnc2c(=O)[nH]c(NC(C)=O)nc21 (stereo not drawn)	inactive: > 100 µM
O=c1[nH]c(=O)n(COCc2ccccc2)c2ccc(Br)cc12	inactive: > 100 µM
Clc1ccc(-c2cc3nc4ccccc4nc3o2)cc1	inactive: > 100 µM
CC(C)[Si](OC1=C(c2ccccc2)C(NC(=O)/C=C/c2ccc([N+](=O)[O-])cc2)CCC1)(C(C)C)C(C)C (stereo not drawn)	inactive: > 100 µM
CCOc1ccccc1/N=N/c1c(-c2ccccc2)nn(C(=O)CC(=O)Nc2cccc(Cl)c2)c1-c1ccccc1	inactive: 49.2 µM
CC[n+]1c(/C=C/c2ccc(N(CCCl)CCCl)cc2)ccc2cc(Br)ccc21	inactive: 3.45 µM
O=C(NCCN1CCCCC1)c1cccc(I)c1	inactive: > 100 µM
Clc1ccccc1C1=NN(c2ccccc2)C2c3ccccc3OCC12 (stereo not drawn)	inactive: > 100 µM
Cn1c(N=P(c2ccccc2)(c2ccccc2)c2ccccc2)c([N+](=O)[O-])c(=O)n(C)c1=O	inactive: > 100 µM

Structure (SMILES)	GI50
COc1ccc(/N=C2/C(=N/c3ccc(OC)cc3)N(c3ccccc3)C(=S)N2N=C=C2Sc3ccccc3N2C)cc1	inactive: > 100 µM
O=C1N=C(SC2OC(CO)C(O)C(O)C2O)S/C1=C\c1ccccc1 (stereo not drawn)	inactive: > 100 µM
CCOC(=O)c1c[nH]c2c(Sc3ccccc3)nccc2c1=O	inactive: > 100 µM
COc1cc2cc3c4c(cc(OC)c(OC)c4c2cc1OC)CCN3C(=O)CCCC(=O)O	inactive: > 100 µM
COc1ccccc1NC(=S)N/N=C/c1cccc(C)n1	inactive: 10.9 µM
c1cc2cc(Cc3ccc4[nH]ccc4c3)ccc2[nH]1	inactive: 19 µM
Cc1nc2c(nc1C)-c1c(c3c(n1Cc1ccccc1)C(=O)CCC3)C(=O)C2=O	inactive: 17.1 µM
O=C1/C(=C/c2ccco2)N=C(c2ccccc2)N1c1cc2cc(Sc3ccccc3)ccc2[nH]1	inactive: > 25 µM
COc1ccc(/N=N/c2c(-c3ccccc3)nn(C(=O)CC(=O)Nc3ccccc3Cl)c2-c2ccccc2)cc1	inactive: > 100 µM
O=C(Nc1cccc(Cl)c1)C(=O)C(C(=O)c1ccc2ccccc2c1)C1OC(=O)c2ccccc21 (stereo not drawn)	inactive: 17.4 µM
COC(=O)C(NC(=O)CSc1nnc(COc2ccc(Cl)cc2)n1-c1ccccc1)C(C)C (stereo not drawn)	inactive: 24.2 µM
O=C1CC(c2ccccc2Cl)C2(C(=O)NC(=O)NC2=O)C(c2ccccc2Cl)C1 (stereo not drawn)	inactive: 43.9 µM
O=[N+]([O-])C(=C/c1ccccc1)/C(=C\c1ccccc1)[N+](=O)[O-]	inactive: 25.8 µM
CCN1C(=O)/C(=C/Nc2ccccc2)S/C1=N/Nc1nc(-c2ccc(O)c(O)c2)cs1	inactive: 11.6 µM
OC12c3ccccc3C1CCCCCCCCCC21OCCO1 (stereo not drawn)	inactive: > 100 µM
CC12OC3(O)C4C5CC(C6C5C3C61)C42 (stereo not drawn)	inactive: > 100 µM
Cn1c(=O)oc2cc(C3CCC(=O)N3Cc3ccc(Cl)cc3)ccc21 (stereo not drawn)	inactive: > 100 µM
Cc1ccc(C(=O)Nc2ccc(CP(=O)(O)O)cc2)cc1NC(=O)c1cccc(NC(=O)Nc2cccc(C(=O)Nc3cc(C(=O)Nc4ccc(CP(=O)(O)O)cc4)ccc3C)c2)c1	inactive: > 100 µM
CN(CCC(=O)O)C1=Nc2ccc(Cl)cc2C(c2ccccc2)=[N+]([O-])C1	inactive: > 100 µM
CC(O)CCCCC(O)CCC[C@H](O)[C@H]1CCC([C@H]2CCC([C@@H](O)CCCCCCCCCCCCC3=C[C@H](C)OC3=O)O2)O1 (stereo partly drawn)	inactive: 12.8 µM
O=C1Oc2cc(O)cc(/C=C/c3ccc(O)cc3)c2[C@@]12c1c(O)cc(O)cc1OC2c1cccc(O)c1 (stereo partly drawn)	inactive: 21.1 µM
